In PubChem BioAssay AID652104 (National Center for Advancing Translational Sciences (NCATS), 2013):
The campaign covered roughly 410,000 compounds. About 7,200 (1.8%) were called active. The inconclusive results got no clear call from the source; some entries with a clear call stand among them for comparison. Calls follow the shape of the dose curve; as a rule, active = well fitted activation curve with a large enough effect; inconclusive = small, poorly fitted or top-dose-only effect, or another doubt; inactive = no such curve, though single readings can be large or run the other way. Potencies of inconclusive entries are left out as doubtful fits.

experiment: qHTS of TDP-43 Inhibitors; settings: TDP-43 expressing yeast growth rescue, BacTiter-Glo, 24 h; growth rescue (activation): at 46.1 µM (top of the series) unless noted; also: nearly all actives have a fitted effect of over 50% in size; as to growth rescue (activation): % of control where 0% means no effect
Summary of the method: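 Galactose-induced TDP-43 yeast, OD600=0.02, compound pinned; 24 hr, 30 deg C; BacTiter-Glo luminescence for growth. Inhibitors of TDP-43 toxicity read as activators.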
Potency is read from the fitted curve at half-maximal effect; tags tell the direction and shape of the fitted curve.

SMILES	Potency	growth rescue (activation)
COc1ccc(CNC(=O)c2csc3c2CCCC3)cc1	inconclusive [activator, full curve]	
CN(Cc1ccccc1)S(=O)(=O)c1cccc2cccnc12	inconclusive [activator, single point]	
Cc1ccc(S(=O)(=O)Nc2ccc(-c3csc(-c4ccccc4)n3)cc2)cc1	inconclusive [activator, partial curve]	
CCc1ccc(NC(=S)Nc2cccc(OC)c2)cc1	inconclusive [activator, single point]	
CCOc1ccc(C(=O)CCC(=O)Nc2ncccc2O)cc1	inconclusive [activator, partial curve]	
CC(C)CNc1ncnc2c1nnn2C	inactive	
O=C(NNC(=O)c1ccccc1F)c1cccc(-n2cccc2)c1	inconclusive [activator, partial curve]	
CC(C)Oc1ccc(/C(O)=C2/C(=O)C(=O)N(Cc3cccnc3)C2c2ccco2)cc1 (stereo not given)	inconclusive [activator, partial curve]	
Cc1ccc2nc(Cl)cc(=O)n2c1	inactive	
Cc1c(Cl)cccc1-n1ncc(C(=O)NCc2cccs2)c1C1CCN(C(=O)OC(C)(C)C)CC1	active: 31.6 µM	
COc1ccc(/C=N/NC(=O)c2cccnc2)cc1CSc1nc2ccccc2s1	active: 12.6 µM	
CCc1ccc(-c2nn(CC(=O)Nc3ccccc3C)c3c2cnc2ccc(C)cc23)cc1	inconclusive [activator, full curve, poor fit]	
Cc1ccc(C)c(NC(=S)c2ccccn2)c1	inconclusive [activator, partial curve]	
Clc1ccc(OCc2nc3ccccc3n2Cc2ccccc2)c(Cl)c1	inconclusive [activator, partial curve]	
Cc1cc(C)nc(SCc2csc(N)n2)n1	inconclusive [activator, partial curve, poor fit]	
Cc1ccc(Nc2nc(=O)c3cccnc3s2)c(Br)c1	inconclusive [activator, single point]	
COc1ccccc1N=c1oc2c(OC)cccc2cc1C(=O)NCc1ccco1	inconclusive [activator, full curve]	
CCOc1ccccc1C(=S)NC1CCCCC1	inconclusive [activator, partial curve]	
CCC1CCc2sc(C(=O)NCC(c3ccc(OC)cc3)N3CCCC3)cc2C1 (stereo not given)	inactive	
C=CCOC(=O)C1=C[C@@H](c2ccc(C(F)(F)F)cc2)C[C@@H](OCCCCO)O1	inconclusive [activator, partial curve]	
C[C@H](CO)N1C[C@H](C)[C@@H](CN(C)C(=O)c2cc(-c3ccccc3)on2)OCc2cn(nn2)CCCC1=O	inconclusive [activator, full curve, poor fit]	
COC(=O)CSC(=S)N1C(C)CCCC1C (stereo not given)	inconclusive [activator, partial curve]	
O=C(Nc1ccc(F)cc1F)C1CCN(C(=O)c2ccc(Br)cc2)CC1	inconclusive [activator, partial curve]	

SMILES	Potency	growth rescue (activation)
CCOc1ccc(CN(C)CC(=O)Nc2ccc(N3CCOCC3)cc2)cc1OC	inconclusive [activator, partial curve]	
O=C(COc1ccccc1F)Nc1nc(-c2ccccn2)cs1		inconclusive: -52.9% [activator]
Cc1cc(C)c(S(=O)(=O)N2CCN(C(=O)c3ccc(-n4nc(C)c(Cl)c4C)cc3)CC2)c(C)c1	inconclusive [activator, single point]	
Cc1nc(NC(=O)C(C)(C)C)sc1-c1nc(N)sc1-n1cc(-c2ccccc2)nn1	inactive	
Cc1ccc(C)c(NC(=O)c2nn(C)c3c2CS(=O)(=O)c2ccccc2-3)c1	inconclusive [activator, full curve]	
Cc1cc(SCC(=O)NC2CC2)nc2ccccc12	inconclusive [activator, partial curve]	
CCCn1c(=O)c2[nH]c(-c3ccc(S(=O)(=O)O)cc3)nc2n(CCC)c1=O	inconclusive [activator, partial curve]	
Cc1ccc(CSc2nnc(-c3ccccn3)n2Cc2cccs2)cc1	active: 35.5 µM	
Cc1ccc(NC(=S)N2CCC(C(=O)c3ccc(F)cc3)CC2)cc1C	inconclusive [activator, single point]	
CC(=O)N(C)c1ccc(C=C2C=Cc3ccccc32)cc1	active: 14.1 µM	
Cc1ccc(CN(C)S(=O)(=O)c2c(C)noc2/C=C/N(C)C)cc1	inconclusive [activator, single point]	
Nc1c2c(nc3sc4c(c13)CCCC4)CCCCCC2	inactive	
CCOC(=O)c1ccc(NC(=S)N(CCN(C)C)C(C)c2ccncc2)cc1 (stereo not given)	inactive	
CCC(C)NC(=O)c1cc(-c2ccccc2O)on1 (stereo not given)	inactive	
O=C(CSc1n[nH]c(-c2ccccc2)n1)Nc1ncccn1	inactive	
Cc1cccn2c(=O)c(C=O)c(N3CCN(c4ccccc4)CC3)nc12	inconclusive [activator, single point]	
CCc1ccc(CN(Cc2ccco2)C(=O)COc2ccc(Cl)c(C)c2)cc1	inactive	
Cc1cccc(-n2c(=S)[nH]c3c(oc4ccccc43)c2=O)c1	inconclusive [activator, full curve, poor fit]	
CCNc1cc(S(=O)(=O)C(F)(F)F)ccc1N	inconclusive [activator, partial curve, poor fit]	
O=S(=O)(c1ccc(Cl)cc1)c1cc(O)ccc1O	inconclusive [activator, partial curve, poor fit]	
Clc1cccc(CNc2ccn3nc(-c4ccc(OCCN5CCOCC5)cc4)cc3n2)c1	inactive	
Cc1ccccc1CSCC(=O)Nc1ccccc1Br	inconclusive [activator, partial curve]	
